Laboratory results reported in patent publication US20250214977A1, “STAT6 INHIBITORS AND USES THEREOF” (Kymera Therapeutics, Inc., priority 2024, published 2025).

Target: T1, biotinylated truncated STAT6 (123-632)-avi (Homo sapiens, UniProt P42226)
T1 sequence (P42226 123-632 limits assumed): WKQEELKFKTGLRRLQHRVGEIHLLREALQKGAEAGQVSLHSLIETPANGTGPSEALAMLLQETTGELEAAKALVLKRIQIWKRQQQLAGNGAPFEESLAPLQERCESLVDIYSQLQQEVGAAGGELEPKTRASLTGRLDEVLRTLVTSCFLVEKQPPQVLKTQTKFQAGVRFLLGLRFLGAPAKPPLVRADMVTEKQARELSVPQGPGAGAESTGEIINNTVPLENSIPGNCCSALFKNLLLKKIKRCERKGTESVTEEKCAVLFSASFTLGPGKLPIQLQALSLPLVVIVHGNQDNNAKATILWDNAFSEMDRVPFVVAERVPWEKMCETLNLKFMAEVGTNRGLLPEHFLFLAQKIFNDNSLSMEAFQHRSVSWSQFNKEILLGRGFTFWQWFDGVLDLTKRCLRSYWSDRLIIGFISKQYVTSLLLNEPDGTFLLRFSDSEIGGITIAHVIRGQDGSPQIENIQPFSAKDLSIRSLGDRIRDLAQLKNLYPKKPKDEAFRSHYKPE
Assay: Homogenous Time-Resolved Fluorescence (HTRF) binding assay
Settings: 0.15 nM biotinylated truncated STAT6 (123-632)-avi, 20 nM fluorescein-labeled probe

CN(C)C(=O)c1cc2ccc(C3=CCCN(C(=O)C4(c5ccc(C(F)(F)F)cc5)CC4)C3)cc2[nH]1 [Example I-84]
IC50 (30 minutes at room temperature): 1000 to 10000 nM

COc1ccccc1-c1cc(C2=CCCN(C(=O)CCn3ccnn3)C2)c(F)c2[nH]c(C(=O)N3CCN(c4c(F)cccc4OC4CC4)CC3)cc12 [Example I-424]
IC50 (30 minutes at room temperature): < 100 nM

COc1ccc(C(C)C)cc1-c1cc(C2=CCCN(C(=O)CCn3ccnn3)C2)cc2[nH]c(C(=O)N(C)C)cc12 [Example I-1672]
IC50 (30 minutes room temperature): < 100 nM

COc1ccccc1-c1cc(C2=CCCN(C(=O)CCn3ccnn3)C2)c(F)c2[nH]c(C(=O)N3CCN(c4ccncc4OC)CC3)cc12 [Example I-365]
IC50 (30 minutes at room temperature): < 100 nM

COc1ccccc1-c1cc(C2=CCCN(C(=O)CCn3ccnn3)C2)c(F)c2[nH]c(C(=O)N3CCN(C)C(c4ccccc4)C3)cc12 (centres unmarked) [Example I-911]
IC50 (30 minutes at room temperature): 100 to 1000 nM

CN(C)C(=O)c1cc2ccc(C3=CCCN(C(=O)CCc4nccs4)C3)cc2[nH]1 [Example I-821]
IC50 (30 minutes at room temperature): 100 to 1000 nM

COc1cc(F)cnc1N1CCN(C(=O)c2cc3c(-c4cccc(O)c4)cc(C4=CCCN(C(=O)CCn5ccnn5)C4)c(F)c3[nH]2)CC1 [Example I-615]
IC50 (30 minutes at room temperature): < 100 nM

Cc1[nH]nc2ccc(-c3cc(C4=CCCN(C(=O)CCn5ccnn5)C4)cc4cc(C(=O)N(C)C)oc34)cc12 [Example I-1075]
IC50 (30 minutes at room temperature): < 100 nM

COC(=O)c1ccc(CCC(=O)N2CCC=C(c3ccc4cc(C(=O)N(C)C)[nH]c4c3)C2)[nH]1 [Example I-68]
IC50 (30 minutes at room temperature): 10000 to 100000 nM

COc1cc(F)cnc1N1CCN(C(=O)c2cc(-c3cccnc3OC)c3c(c2)cc(C2=CCCN(C(=O)CCn4ccnn4)C2)n3CC2CC2)CC1 [Example I-726]
IC50 (30 minutes at room temperature): < 100 nM

COc1cccc(N2CCN(C(=O)c3cc4c(-c5cc(F)cc(F)c5OC)cc(C5=CCCN(C(=O)CCn6ccnn6)C5)c(F)c4[nH]3)CC2)n1 [Example I-591]
IC50 (30 minutes at room temperature): < 100 nM

COc1ccc(F)cc1-c1cc(C2=CCCN(C(=O)CCn3ccnn3)C2)c(F)c2[nH]c(C(=O)N3CCN(c4ncccc4OC)CC3)cc12 [Example I-395]
IC50 (30 minutes at room temperature): < 100 nM

COC(=O)c1cc2c(F)c([C@H]3CCCN(C(=O)CCn4cccn4)C3)cc(-c3ccc(N4CCN(C(=O)OC(C)(C)C)CC4)cc3)c2o1 (single isomer, unassigned) [Example I-1265]
IC50 (30 minutes room temperature): 10000 to 100000 nM

COc1ccccc1-c1cc(C2=CCCN(C(=O)CCn3ccnn3)C2)c(F)c2[nH]c(C(=O)N3Cc4ccc(C#N)cc4C3)cc12 [Example I-975]
IC50 (30 minutes at room temperature): < 100 nM

COc1ccncc1-c1cc(C2=CCCN(C(C)=O)C2)c(F)c2[nH]c(C(=O)N(C)C)cc12 [Example I-1094]
IC50 (30 minutes at room temperature): < 100 nM

CCn1c(N2CCN(C(=O)c3cc4c(-c5ccccc5OC)cc(C5=CCCN(C(=O)CCn6ccnn6)C5)c(F)c4[nH]3)CC2)cc2ccccc21 [Example I-967]
IC50 (30 minutes at room temperature): 100 to 1000 nM

COc1cccnc1C1=CCN(C(=O)c2cc3c(-c4cnc5ccccc5c4OC)cc(C4=CCCN(C(=O)CCn5ccnn5)C4)c(F)c3[nH]2)CC1 [Example I-451]
IC50 (30 minutes at room temperature): < 100 nM

COc1cc(F)cnc1N1CCN(C(=O)c2cc3c(-c4ccccc4CN4CCOCC4)cc(C4=CCCN(C(=O)CCn5ccnn5)C4)c(F)c3[nH]2)CC1 [Example I-1123]
IC50 (30 minutes at room temperature): < 100 nM

COc1cc(F)cnc1N1CCN(C(=O)c2cc3c(-c4cncc(C5CC5)c4)cc(C4=CCCN(C(=O)CCn5ccnn5)C4)c(F)c3[nH]2)CC1 [Example I-637]
IC50 (30 minutes at room temperature): < 100 nM

COc1c(-c2cc(C3=CCCN(C(=O)CCn4ccnn4)C3)c(F)c3[nH]c(C(=O)N4CCN(c5ncccc5OC5CC5)CC4)cc23)cnc2ccccc12 [Example I-447]
IC50 (30 minutes at room temperature): < 100 nM

COc1ccccc1-c1cc(C2=CCCN(C(=O)CCn3ccnn3)C2)c(F)c2[nH]c(C(=O)N3CCN(C4CC5(COC5)C4)CC3)cc12 [Example I-1383]
IC50 (30 minutes room temperature): 100 to 1000 nM

Cc1c(C2=CCCN(C(=O)CCn3ccnn3)C2)cc2[nH]c(C(=O)N(C)C)cc2c1C [Example I-1630]
IC50 (30 minutes room temperature): < 100 nM

CN(C)C(=O)c1cc2ccc(C3=CCCN(C(=O)[C@@H]4CCCN4C(=O)c4ccc(F)cc4)C3)cc2[nH]1 [Example I-99]
IC50 (30 minutes at room temperature): 10000 to 100000 nM

CN(C)C(=O)c1cc2ccc(C3=CCCN(C(=O)C4CS(=O)(=O)C4)C3)cc2[nH]1 [Example I-163]
IC50 (30 minutes at room temperature): 10000 to 100000 nM

CCc1cc(C)ncc1-c1cc(C2=CCCN(C(=O)CCc3nccs3)C2)c(F)c2[nH]c(C(=O)N3CCN(c4ncc(F)cc4OC)CC3)cc12 [Example I-525]
IC50 (30 minutes at room temperature): < 100 nM

O=C(CCn1ccnn1)N1CCC=C(c2ccc3cc(C(=O)N4CCN(CCCO)CC4)[nH]c3c2F)C1 [Example I-1652]
IC50 (30 minutes room temperature): 1000 to 10000 nM

COc1ccccc1-c1cc(C2=CCCN(C(=O)CCn3ccnn3)C2)c(F)c2[nH]c(C(=O)N3CCN(c4ccc(=O)n(C)c4)CC3)cc12 [Example I-971]
IC50 (30 minutes at room temperature): < 100 nM

COc1ccccc1-c1cc(C2=CCCN(C(=O)CCn3ccnn3)C2)c(F)c2[nH]c(C(=O)N3CCN(c4cc(C(F)(F)F)ccn4)CC3)cc12 [Example I-935]
IC50 (30 minutes at room temperature): < 100 nM

CC(=O)N1CCC=C(c2cc(-c3ccccc3C#N)c3cc(C(=O)N(C)C)[nH]c3c2F)C1 [Example I-1565]
IC50 (30 minutes room temperature): < 100 nM

COc1ccccc1-c1cc(C(=O)N2CCN(c3ncc(F)cc3OC)CC2)cc2cc(C3=CCCN(C(=O)CCn4ccnn4)C3)n(CC(C)C)c12 [Example I-521]
IC50 (30 minutes at room temperature): < 100 nM

COc1cc(F)cnc1N1CCN(C(=O)c2cc3c(C4=CCCCC4)cc(C4=CCCN(C(=O)CCn5ccnn5)C4)c(F)c3[nH]2)CC1 [Example I-1135]
IC50 (30 minutes at room temperature): < 100 nM

COc1ccccc1-c1cc(C2CCCN(C(C)=O)C2)c(F)c2[nH]c(C(=O)N(C)C3CC3)cc12 (centres unmarked) [Example I-1488]
IC50 (30 minutes room temperature): 1000 to 10000 nM

CN(C)C(=O)c1nc2cc(C3=CCCN(C(=O)CCn4ccnn4)C3)ccc2[nH]1 [Example I-234]
IC50 (30 minutes at room temperature): 1000 to 10000 nM

CCc1ccc(-c2cc(C(=O)N3Cc4cnn(CC)c4C3)cc3cc(C4=CCCN(C(=O)C(=O)O)C4)n(CC4CC4)c23)c(C)n1 [Example I-798]
IC50 (30 minutes at room temperature): > 100000 nM

O=C(CCn1ccnn1)N1CCCC(n2ccc3cc(-n4cccn4)ccc32)C1 (centres unmarked) [Example I-1299]
IC50 (30 minutes room temperature): 10000 to 100000 nM

CN(C)C(=O)c1cc2ccc(C3=CCCN(C(=O)CCc4ccno4)C3)cc2[nH]1 [Example I-829]
IC50 (30 minutes at room temperature): 100 to 1000 nM

COc1cccc(N2CCN(C(=O)c3cc4c(-c5cnc6ccccc6c5OC)cc(C5=CCCN(C(=O)CCn6ccnn6)C5)c(F)c4[nH]3)CC2)n1 [Example I-1038]
IC50 (30 minutes at room temperature): 100 to 1000 nM

CC(Oc1ccccn1)C(=O)N1CCC=C(c2ccc3cc(C(=O)N(C)C)[nH]c3c2)C1 (centres unmarked) [Example I-54]
IC50 (30 minutes at room temperature): 10000 to 100000 nM

COc1cccnc1N1CCN(C(=O)c2cc3c(-c4cccc(Cl)c4OC)cc(C4=CCCN(C(=O)CCn5ccnn5)C4)c(F)c3[nH]2)CC1 [Example I-411]
IC50 (30 minutes at room temperature): < 100 nM

CN(C)C(=O)c1cc2cc(C3=CCCN(C(=O)CCn4ccnn4)C3)cnc2[nH]1 [Example I-222]
IC50 (30 minutes at room temperature): 100 to 1000 nM

COc1nc(N2CCN(C(=O)c3cc4c(-c5cnc6ccccc6c5OC)cc(C5=CCCN(C(=O)CCn6ccnn6)C5)c(F)c4[nH]3)CC2)ccc1F [Example I-469]
IC50 (30 minutes at room temperature): 100 to 1000 nM

CN(C)C(=O)c1cc2ccc(C3=CCCN(C(=O)Cn4ccnn4)C3)cc2[nH]1 [Example I-37]
IC50 (30 minutes at room temperature): 1000 to 10000 nM

CN(C)C(=O)c1cc2cc(C3=CCCN(C(=O)CCc4nc5ccccc5[nH]4)C3)ccc2o1 [Example I-267]
IC50 (30 minutes at room temperature): 1000 to 10000 nM

CC(C)C1C=C(c2ccc3cc(C(=O)N(C)C)[nH]c3c2F)CN(C(=O)CCn2ccc(C(N)=O)n2)C1 (centres unmarked) [Example I-1247]
IC50 (30 minutes room temperature): 100 to 1000 nM

CCn1ncc2c1CN(C(=O)c1cc3c(-c4ccccc4OC)cc(C4=CCCN(C(=O)CCn5ccnn5)C4)c(F)c3[nH]1)C2 [Example I-507]
IC50 (30 minutes at room temperature): 10000 to 100000 nM

COc1ccccc1-c1cc(C2=CCCN(C(=O)CCn3ccnn3)C2)c(F)c2[nH]c(C(=O)N3CCC(c4noc(C(C)C)n4)CC3)cc12 [Example I-1425]
IC50 (30 minutes room temperature): < 100 nM

CCc1ccncc1-c1cc(C2=CCCN(C(=O)CCn3ccnn3)C2)c(F)c2[nH]c(C(=O)N3CCN(C4CC4)CC3)cc12 [Example I-473]
IC50 (30 minutes at room temperature): < 100 nM

CCc1ccccc1-c1cc(C2=CCCN(C(=O)CCn3cccn3)C2)c(F)c2[nH]c(C(=O)N3CCN(c4ncc(F)cc4OC)CC3)cc12 [Example I-662]
IC50 (30 minutes at room temperature): < 100 nM

CN(C)C(=O)c1cc2ccc(C3=CCCN(C(=O)CCn4ccnn4)C3)cc2s1 [Example I-269]
IC50 (30 minutes at room temperature): 100 to 1000 nM

Cc1ccccc1-c1cc(C2=CCCN(C(=O)CCn3ccnn3)C2)cc2cc(C(=O)N(C)C)oc12 [Example I-1086]
IC50 (30 minutes at room temperature): < 100 nM

O=C(CCn1ccnn1)N1CCC=C(c2ccc3oc(-c4cc(F)ccc4O)cc3c2)C1 [Example I-1279]
IC50 (30 minutes room temperature): 10000 to 100000 nM

CCn1c(N2CCN(C(=O)c3cc4c(-c5ccccc5OC)cc(C5=CCCN(C(=O)CCn6ccnn6)C5)c(F)c4[nH]3)CC2)nc2ccccc21 [Example I-942]
IC50 (30 minutes at room temperature): < 100 nM

CN(C)C(=O)c1cc2c(-c3cc4cc[nH]c4cc3Cl)cc(C3=CCCN(C(=O)CCn4ccnn4)C3)cc2[nH]1 [Example I-1066]
IC50 (30 minutes at room temperature): < 100 nM

COc1ccccc1-c1cc(C2=CCCN(C(=O)CCn3ccnn3)C2)c(F)c2[nH]c(C(=O)N3CCC(C)(C#N)C3)cc12 (centres unmarked) [Example I-1366]
IC50 (30 minutes room temperature): < 100 nM

CN(C)CCN(C)C(=O)c1cc2cc(C3=CCCN(C(=O)CCn4ccnn4)C3)ccc2o1 [Example I-844]
IC50 (30 minutes at room temperature): 100 to 1000 nM

COc1ccncc1-c1cc(C2=CCCN(C(=O)CCn3ccnn3)C2)c(F)c2[nH]c(C(=O)N3CCN(c4ncc(F)cc4OC)CC3)cc12 [Example I-428]
IC50 (30 minutes at room temperature): < 100 nM
